According to PubChem BioAssay AID488969 (Vanderbilt High Throughput Screening Facility, 2010):
In all, about 110,000 compounds were measured (“z-score”: median about -0.1, highest 2% from about 2 on). The list shows a part of the results. The source made the active and inactive calls.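 Rule for the calls: active = z-score in the third read window above 3 or below -3; inactive = the rest.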

What follows are compounds tested against Metabotropic glutamate receptor 8 (Rattus norvegicus) (UniProt P70579) (assay: rat mGluR8 modulators via GIRK flux, primary screen, cell-based, thallium flux, HTS (AID 488969)). Conditions: HEK293 rat mGluR8, GIRK (G protein-gated inwardly rectifying potassium channel) thallium flux, FluoZin2; at 10 µM; stronger effect = higher value; submaximal glutamate (EC20) added with thallium.
UniProt P70579, sequence (P70579 whole entry, looked up): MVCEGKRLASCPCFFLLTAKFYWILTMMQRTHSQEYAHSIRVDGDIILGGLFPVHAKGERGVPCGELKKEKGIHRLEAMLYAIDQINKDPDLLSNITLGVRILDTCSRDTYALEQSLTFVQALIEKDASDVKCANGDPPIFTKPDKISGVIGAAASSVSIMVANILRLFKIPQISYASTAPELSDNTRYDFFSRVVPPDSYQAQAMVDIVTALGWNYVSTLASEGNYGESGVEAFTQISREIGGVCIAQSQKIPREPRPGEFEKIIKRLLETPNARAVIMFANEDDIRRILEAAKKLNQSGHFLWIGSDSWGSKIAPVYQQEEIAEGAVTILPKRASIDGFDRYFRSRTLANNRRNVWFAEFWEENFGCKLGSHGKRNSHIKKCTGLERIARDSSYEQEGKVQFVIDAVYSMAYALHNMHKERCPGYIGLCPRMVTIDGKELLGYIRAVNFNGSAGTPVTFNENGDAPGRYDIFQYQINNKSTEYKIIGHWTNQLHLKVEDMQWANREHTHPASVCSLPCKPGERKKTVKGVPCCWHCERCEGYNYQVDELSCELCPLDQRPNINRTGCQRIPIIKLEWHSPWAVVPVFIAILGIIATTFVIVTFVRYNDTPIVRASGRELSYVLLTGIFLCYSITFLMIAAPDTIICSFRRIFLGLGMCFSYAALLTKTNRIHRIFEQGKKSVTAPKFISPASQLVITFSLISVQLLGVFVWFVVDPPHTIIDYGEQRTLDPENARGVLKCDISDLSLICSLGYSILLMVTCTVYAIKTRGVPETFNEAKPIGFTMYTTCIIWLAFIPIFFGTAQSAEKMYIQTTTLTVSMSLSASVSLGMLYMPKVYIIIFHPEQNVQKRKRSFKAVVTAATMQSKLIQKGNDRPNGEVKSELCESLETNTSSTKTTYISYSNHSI

Question: Cc1nnc(Nc2ccccc2)n(N)c1=O was tested. Which z-score did it give?
Answer: 0.0927

Question: How did the z-score turn out when CSc1nc(NC(C)(C)C)nc(N2CCOCC2)n1 was run?
Answer: -1.58

Question: COc1ccc(-c2nc(O)c3cnccn23)cc1 was tested. Which z-score did it give?
Answer: -0.252

Question: For O=C(O)CSCC(=O)Nc1ccc(C2CCCCC2)cc1, which z-score is on record?
Answer: -0.331

Question: How did the z-score turn out when N/C(COc1cccc(Cl)c1)=N\NS(=O)(=O)c1ccccc1 was run?
Answer: 0.0468

Question: O=C(c1ccc2c(c1)OCCCO2)c1cccs1 was tested. Which z-score did it give?
Answer: 0.575

Question: How did the z-score turn out when COc1cc(NC(=S)Nc2cccnc2)cc(OC)c1OC was run?
Answer: -0.192

Question: Which z-score does the source give for CCN(C(=O)CSc1nc2ccccc2n1CCc1ccccc1)C1CCS(=O)(=O)C1 (stereo unspecified) here?
Answer: active: 3.88

Question: Cc1cccc(-c2n[nH]c(=S)n2-c2ccccc2)c1[N+](=O)[O-] was tested. Which z-score did it give?
Answer: -0.306

Question: For CCC(=O)Nc1ccccc1C(=O)OCc1ccc(C(=O)c2ccccc2)cc1, which z-score is on record?
Answer: -0.327

Question: With O=C(c1sc2cccc(F)c2c1Cl)N1CCN(c2ncccn2)CC1 as the compound, how does the z-score read?
Answer: -0.465

Question: How did the z-score turn out when O=S1(=O)C[C@@H](N2CCOCC2)[C@H](N2CCOCC2)C1 was run?
Answer: -0.267

Question: For COc1ccc(C2=NOC(C(=O)N3CCOCC3)C2)cc1OC (stereo unspecified), which z-score is on record?
Answer: -0.0899

Question: COc1ccc(C2CC(=O)N3CN(c4ccc(C)c(Cl)c4)CSC3=C2C#N)cc1OC (stereo unspecified) was tested. Which z-score did it give?
Answer: -0.42

Question: For CC1=NN(c2ccccc2)C(=O)C1C(=O)c1ccc(Cl)cc1 (stereo unspecified), which z-score is on record?
Answer: 2.14

Question: How did the z-score turn out when Cn1c(N)c(C(=O)COC(=O)C2(c3ccccc3F)CCCC2)c(=O)n(C)c1=O was run?
Answer: -0.309

Question: With CCC(=O)Nc1cc(C)c(NC(=O)c2ccccc2OC)cn1 as the compound, how does the z-score read?
Answer: -0.239

Question: Which z-score does the source give for COC(=O)c1ccc(OC(=O)CCN2c3ccccc3Sc3ccccc32)cc1 here?
Answer: 0.123

Question: CCCc1c(C)c(C#N)c2nc3ccccc3n2c1NCCCN1CCOCC1 was tested. Which z-score did it give?
Answer: -0.297

Question: For CC(C)Cc1nnc(NC(=O)CCC(=O)N2CCN(c3ccccn3)CC2)s1, which z-score is on record?
Answer: -0.12

Question: Which z-score does the source give for Cc1c(Cc2ccccc2)c(=O)oc2cc(OCc3nn[nH]n3)ccc12 here?
Answer: -0.244

Question: COc1ccccc1-c1noc(-c2cccnc2)n1 was tested. Which z-score did it give?
Answer: 0.0558

Question: How did the z-score turn out when Cc1csc(NC(=O)CNS(=O)(=O)c2cccs2)n1 was run?
Answer: -1.44

Question: Which z-score does the source give for CC(=O)C1(C)N(O)C(C)(C)C(c2ccco2)=[N+]1[O-] (stereo unspecified) here?
Answer: -0.047

Question: How did the z-score turn out when CCOc1ccc(-n2nc3c(SCCN4CCCC4)nnc(C)c3c2C)cc1 was run?
Answer: -0.146

Question: COc1ccc(CCNC(=O)COC(=O)/C=C/c2ccc(OC)c(OC)c2)cc1 was tested. Which z-score did it give?
Answer: -0.0542

Question: Which z-score does the source give for O=C(c1ccco1)N1CCN(C(c2ccccc2F)c2nnnn2Cc2cccs2)CC1 (stereo unspecified) here?
Answer: 0.0453

Question: With CC(=O)N=C1SC2CS(=O)(=O)CC2N1c1c(Cl)cccc1Cl (stereo unspecified) as the compound, how does the z-score read?
Answer: 0.67

Question: Which z-score does the source give for O=C(CSc1nnc(-c2ccncc2)n1CC1CCCO1)Nc1cccc(O)c1 (stereo unspecified) here?
Answer: -0.162

Question: For Cc1c(Cl)cccc1NC(=S)NCCN1CCOCC1, which z-score is on record?
Answer: -0.183

Question: Which z-score does the source give for COc1cccc(-c2cc(C(F)(F)F)nc(N3CCC(C)CC3)n2)c1 here?
Answer: -0.433

Question: For S=c1nc(-c2ccccc2)oc2c1CCCC2, which z-score is on record?
Answer: -0.0866

Question: How did the z-score turn out when COc1ccc(NS(=O)(=O)c2cccc(N3CC(O)=C(c4ccccc4)C3=N)c2)cc1 was run?
Answer: -0.322

Question: With COc1nc(N)c(S(=O)(=O)c2ccc(C)cc2)cc1C#N as the compound, how does the z-score read?
Answer: -0.338

Question: With Cc1nc(NC(=O)C2CC2)sc1C as the compound, how does the z-score read?
Answer: -0.419

Question: For CCC(C)(C)NC(=O)C(c1cccnc1)N(CCOC)C(=O)Cn1nnc2ccccc21 (stereo unspecified), which z-score is on record?
Answer: 0.248

Question: Which z-score does the source give for COc1ccc(C2NC(=O)c3ccccc3N2)cc1OC (stereo unspecified) here?
Answer: 0.548

Question: How did the z-score turn out when NS(=O)(=O)c1ccc(CCNC(=O)C2Cc3ccccc3CN2C(=O)c2ccco2)cc1 (stereo unspecified) was run?
Answer: 0.12

Question: With Cc1ccc(NC(=S)NC2CC3CCC(C2)N3Cc2ccco2)c(C)c1 (stereo unspecified) as the compound, how does the z-score read?
Answer: 0.174

Question: With Cc1nc2c(C(=O)NCc3ccccc3Cl)c[nH]n2c(=O)c1Cl as the compound, how does the z-score read?
Answer: -0.412

Question: For CC(C)C(CCNC(=O)CN1C(=O)c2ccccc2C1=O)c1ccco1 (stereo unspecified), which z-score is on record?
Answer: 1.46

Question: For O=C(O)COCCN1CCN(C(c2ccccc2)c2ccc(Cl)cc2)CC1 (stereo unspecified), which z-score is on record?
Answer: 0.16

Question: For Cc1cc(Nc2cc(C(=O)O)ccc2C)n2ncnc2n1, which z-score is on record?
Answer: 0.0398

Question: With COC(=O)N1N=C(c2ccc(Br)cc2)CC1(O)C(F)(F)F (stereo unspecified) as the compound, how does the z-score read?
Answer: -0.372

Question: Which z-score does the source give for Cc1nnc(SCC(=O)Nc2cccc(S(=O)(=O)N(C)c3ccccc3)c2)s1 here?
Answer: -0.536

Question: For Cc1ccc(NC(=O)c2cc3nc(C)cc(C)n3n2)cc1, which z-score is on record?
Answer: -0.429

Question: With CCCCCCCC(=O)N/N=C(\C)c1cccnc1 as the compound, how does the z-score read?
Answer: -1.01

Question: For Cc1cccnc1NC(=O)c1ccc2nc(N)sc2c1, which z-score is on record?
Answer: -0.303

Question: How did the z-score turn out when CCOc1ccccc1C(=O)Nc1ccccc1-c1ccccc1 was run?
Answer: 0.0945

Question: For O=C1CC(C2CCCO2)C(=O)N1c1ccccc1 (stereo unspecified), which z-score is on record?
Answer: 0.253

Question: CSCCC(NC(=O)c1ccco1)C(=O)O (stereo unspecified) was tested. Which z-score did it give?
Answer: 0.528

Question: O=c1[nH]c(-c2ccc(Cl)cc2)nc2c1cnn2-c1ccccc1 was tested. Which z-score did it give?
Answer: -0.29

Question: COc1ccc(CONS(=O)(=O)c2ccc(NC(C)=O)cc2)cc1Cl was tested. Which z-score did it give?
Answer: -0.00509

Question: How did the z-score turn out when N#CC(C#N)=CC1=C2OC(c3ccccc3)=CC(c3ccccc3)=C2CCC1 was run?
Answer: -0.236

Question: Which z-score does the source give for CCc1ccccc1NC(=O)COC(=O)C1CC(=O)N(c2ccc(F)cc2)C1 (stereo unspecified) here?
Answer: -0.678

Question: COc1ccc(CC(=O)Nc2nnc(C)s2)cc1 was tested. Which z-score did it give?
Answer: -0.0206
